Experimental data: the supplement of paper PMC3334620
The full ranking holds about 33,000 sequences; the median of “E-score (-0.5 to 0.5)” is about -0.041, and the highest 2% start at about 0.37. The list shows a part of the results.

target: T1, Ecm22 (UniProt Q05958); test: PBM E-score (8-mer binding enrichment) (E-score (-0.5 to 0.5)); higher = stronger / more preferred TF binding; most listed sequences are background and not binding sites; conditions: protein concentration: 200 nM; construct: GST-full length
T1 sequence: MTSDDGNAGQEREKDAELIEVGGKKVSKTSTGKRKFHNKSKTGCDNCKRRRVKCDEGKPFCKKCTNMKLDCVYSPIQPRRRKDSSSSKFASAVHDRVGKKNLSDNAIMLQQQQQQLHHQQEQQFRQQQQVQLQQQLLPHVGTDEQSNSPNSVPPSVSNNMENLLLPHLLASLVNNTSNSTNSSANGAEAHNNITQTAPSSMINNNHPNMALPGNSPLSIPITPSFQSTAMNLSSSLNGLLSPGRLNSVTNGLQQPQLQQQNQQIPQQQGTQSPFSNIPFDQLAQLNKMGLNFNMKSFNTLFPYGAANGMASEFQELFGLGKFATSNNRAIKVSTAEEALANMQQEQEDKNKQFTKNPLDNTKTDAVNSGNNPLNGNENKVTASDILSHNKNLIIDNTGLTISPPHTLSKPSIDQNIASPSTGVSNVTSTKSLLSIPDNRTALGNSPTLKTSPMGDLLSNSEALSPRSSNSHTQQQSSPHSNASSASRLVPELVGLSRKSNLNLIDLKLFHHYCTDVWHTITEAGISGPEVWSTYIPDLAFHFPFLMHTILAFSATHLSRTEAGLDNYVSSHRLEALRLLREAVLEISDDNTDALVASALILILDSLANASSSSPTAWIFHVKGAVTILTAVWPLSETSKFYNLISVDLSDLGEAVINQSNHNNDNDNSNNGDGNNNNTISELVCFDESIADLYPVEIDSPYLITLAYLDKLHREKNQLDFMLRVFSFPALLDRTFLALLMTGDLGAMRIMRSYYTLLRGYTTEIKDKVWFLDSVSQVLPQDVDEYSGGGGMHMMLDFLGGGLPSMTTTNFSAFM
How it was run: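 For each ungapped eight-base word taken together with its reverse complement, the Universal PBM Analysis Suite assigned an E-score. Binding data came from GST-tagged yeast transcription factors, applied at about 100-200 nM, on universal all-10-mer Agilent arrays made double-stranded by primer extension. Fluorescent anti-GST marked bound protein, and scans were normalised with masliner.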

Sequence	PBM E-score
GCTACCAA	-0.0916
AGATAGTG	0.0744
CCAGTCTC	-0.197
GCCAAGCC	-0.146
CCACCACG	0.0215
AACCTCAC	-0.0244
CTAAACCA	-0.126
ATATCATC	-0.154
ACGGATTA	0.122
AATGTGAA	-0.0324
TCGTACCA	0.488
ACTGCGCT	-0.0766
TCGCAAAA	0.296
GGCGATAC	0.0112
TCGCTCAA	0.289
AATGATGA	-0.117
CTGGGATA	-0.292
AGAATTTA	-0.211
TCGCGACA	0.127
CTTACCGA	0.21
CCAGGGGA	-0.169
AAGCATGA	-0.043
ATTGAGGA	-0.0867
AAGGGTGG	-0.0958
AGCCACCA	-0.291

Sequence	PBM E-score
ATATATAG	0.165
TCTAATAA	0.0842
ACGTATGC	0.114
ATTCATGC	0.102
GTTCGCTA	0.244
AGCAACGA	0.407
ACCCTGAA	-0.127
GATACGCA	0.231
GAGCAGGA	0.177
GGGGCACA	-0.216
GGCAAGAA	-0.0811
ACACAGTG	-0.0213
TAAGAACA	0.0615
GTTCTTTA	0.12
GATCAACC	0.00058
AATGGGCA	-0.0348
CAACTATC	0.145
GCCACAGA	-0.109
CGAAACCG	0.131
AAAAATGA	-0.0643
CAACAAGG	-0.0608
CTGTGCAC	-0.0356
ATAAGGAG	-0.0163
CTCCTGTC	-0.128
GCCGTTAC	0.069

Sequence	PBM E-score
CTCCATCA	-0.137
GGTGGCAC	-0.212
CCACCCAA	-0.226
AATAACGG	0.211
GACGATGC	-0.0114
TCGCGAGA	0.312
AGCTACGG	0.112
ACGCGCCA	0.0203
AGTCAAGC	-0.127
CGATGGTA	0.0935
ATTTTTAA	0.0854
CAAAGGAC	-0.284
GCAACACC	-0.178
CAAGATTC	-0.248
ATATATGC	0.133
AGATAGAC	0.0861
GAATCAGA	-0.0525
CTGCTTGA	-0.119
ACGCTTGG	-0.0179
AGCTAACT	-0.173
ACAGTATC	-0.0515
ATGAATAA	-0.115
GCTATGGA	-0.173
AGGGAACT	-0.00739
GACGGACC	0.00303

Sequence	PBM E-score
CGCGCATC	0.0785
ATCTGGGA	-0.227
CAAGGGCG	-0.197
ACGCAGAT	0.194
CTCCTTCC	-0.152
ACAAAGCC	-0.0199
AATGATTG	-0.0664
AGGTTCGA	0.027
TAAACACA	0.0299
AGGATCCG	-0.0606
ATGTCAAC	0.1
GGGTGACA	-0.2
AGTCGGAA	0.0822
TCCAGCAA	-0.0116
AGCAGAAT	-0.0881
CGGTTTAG	0.0175
AGGTTATC	-0.0786
CCGTCCAC	-0.041
TCCTGAAA	-0.00548
AATGGTGG	-0.241
ACTGTCGG	-0.12
AATGAAAA	-0.0312
ATCACGTC	-0.0576
AGACTGTA	0.106
GTGGCGCA	0.00871

Sequence	PBM E-score
CTACGATA	0.311
GCGTCGGA	0.22
CCTATTCC	-0.188
GCTCTAAA	-0.144
ATAAAAGA	0.153
AGATCGGG	-0.209
CTAGTCTA	0.0337
TCCCTGAA	-0.105
AAATTCGT	0.334
AACTCTAT	-0.151
ACTACTAA	-0.101
CCCGGTAA	-0.0616
AATCTTTA	-0.0885
ACCAGTTG	-0.0649
AACCAGGA	-0.17
CCTAGACC	-0.104
CTACCATA	-0.0505
GTGACCAC	-0.128
TAGCAAAA	-0.0683
CGTGTAAA	0.185
AAAAGCTC	-0.0238
CCTTGGTC	-0.0914
CTATAGAG	-0.372
CGCCACGC	-0.183
ACACGCAT	-0.195

Sequence	PBM E-score
CACCAAAC	0.139
ATGCGCTG	-0.127
ATTACTTG	-0.0442
CCCGTGGA	-0.198
CCCCCCAA	-0.278
GAGGAACA	-0.0447
CCGCCGTA	0.344
GCGCCTAC	-0.03
CTGTGACC	-0.185
CTGGATCC	0.0538
AGAAGGCG	-0.0893
GGGTGGGA	-0.0941
AATACGGT	0.21
GAACTCTC	-0.116
GATCCTTA	-0.0215
TATCTCCA	-0.135
CTATACAC	-0.176
AGAGGACG	-0.00996
CTACTTGC	-0.149
CCTGCCAA	-0.151
AACTAGCT	0.064
ATGCGTTC	0.21
ATCGGAGA	-0.154
GAACGGCC	0.31
AGTGCTAG	-0.166

Sequence	PBM E-score
ACTACCCC	-0.283
ACGATACA	0.31
GTGAACAA	0.198
AATCTGTC	-0.0394
ACGCTTGC	-0.0756
AAAGACGC	-0.118
ACCCCGAA	-0.0346
AAGTCCTA	-0.0248
AAACAGGG	-0.123
CAGCGGCG	0.0595
CCTATCAA	-0.0295
TACTTAAA	-0.0916
CGCAGGAA	-0.0152
TGTAAAAA	-0.0406
AACGCTGA	0.0665
CAGGATGA	-0.0317
CGATTGCC	0.157
CGCCGCAA	0.094
AGTGCACG	0.112
ATCGCGTC	0.151
AGGTTTTA	-0.127
CAATATGC	0.0461
CGCTCCTA	0.0799
ACTTGACT	-0.314
CCTAGAAA	-0.153

Sequence	PBM E-score
AGCAAAAG	-0.00648
CTCGATAC	0.168
AAGTGTAT	-0.0799
GCACCGTA	0.371
TGAGTCCA	-0.1
GAAGCCTC	-0.0986
AATGATGT	-0.037
AACTACAA	0.019
AGTTCCGG	0.0156
GCCTTACC	-0.138
GGTGCGGA	-0.0515
ACTCAGAG	-0.193
AGACTCAT	-0.0543
TAGACATA	-0.0762
CGCACAAA	0.113
ATTCGGAA	0.197
ACGAACCT	0.173
CTAGTATA	0.0068
ATCCAGCG	0.0378
AGGGTACT	-0.0977
CAAGTGGC	-0.238
TCTCAAAA	-0.0688
GCCAAGAA	-0.104
ATTCGGGG	-0.138
ATAAGCTG	-0.169

Sequence	PBM E-score
CACCTGAC	-0.17
CGCGCTTC	0.0127
CGGCTCCC	-0.0756
GGAGTAAA	0.0078
ATCGCGCC	0.15
AACAGCTT	-0.122
GGTTAGGA	-0.0779
AACCATAT	0.144
CGGAGCGA	0.346
TAAGCCCA	-0.111
AACGTCCC	-0.284
CGATCGCC	0.185
CCAGCTAC	-0.122
AAAGGAGC	-0.131
CACGCTAC	0.112
GAAGTACA	-0.108
ACTGGTGG	-0.206
GGGTCGGA	0.135
GAACCTCA	-0.216
